Screen size: about 5,400 compounds; about 190 (3.5%) showed an effect of 50% or more. This is one part of the list. Starred links: 1 amine or outer side, 2 acyl side, 3 side chain; linkers in the order of their positions; H or OH if unused. Positions of bridges follow the written chain, without caps; N, C: chain ends. Non-standard residues stand in square brackets, D forms with d. Residues, ends and D or L forms follow the SMILES beside them. *: point of attachment. X5 = NC1=N[C@@H](O)C[C@H]([C@H](N[*:1])C(=O)[*:2])N1; ΔAla(Z-3-ureido) = NC(=O)N/C=C(\N)C(=O)O; β3hOrn = NCCC[C@H](N)CC(=O)*; Dap = NC[C@H](N)C(=O)O
System: Vero-E6
Experiment: primary screen, phospholipidosis by LipidTOX staining; higher = more effect of the substance
Details: 10 µM
Outline: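 Single-concentration screen at 10 μM, with DMSO 0.1 v/v % and amiodarone 10 μM as controls. Read-out is LipidTOX Red phospholipid staining, which tolerates aldehyde fixation, in Vero-E6 cells.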

| Structure (SMILES) | result_ITMP |
| --- | --- |
| Fc1ccc(CNc2ncnc3ccc(F)cc23)cc1 | 2.6% |
| CCn1c(=O)n(C2=C(CO)CN(CC3CCCCCCC3)CC2)c2ccccc21 | 3.61% |
| CC(C)(C)NCC(O)c1ccc(O)c(CO)c1 (centres unmarked) | -2.76% |
| Cc1sc2c(c1C)C(c1ccc(Cl)cc1)=N[C@@H](CC(=O)Nc1ccc(OCCOCCOCCOCCNc3cccc4c3C(=O)N(C3CCC(=O)NC3=O)C4=O)cc1)c1nnc(C)n1-2 (some centres unmarked) | 1.89% |
| c1ccc([C@@H]2C[C@H]2NC2CCNCC2)cc1 | 27.9% |
| Fc1ccc(-c2cncc(CN3CCN(c4cccc5c4OCCO5)CC3)c2)cc1 | 1.81% |
| Cc1nnc2n1-c1sc(CCC(=O)N3CCOCC3)cc1C(c1ccccc1Cl)=NC2 | -6.23% |
| O=C(O)c1ccccc1Nc1cccc(OCc2ccc3ccccc3n2)c1 | -1.5% |
| CC(=O)NCCc1c(Cc2ccccc2)[nH]c2ccccc12 | 0.24% |
| CN(C)CC/C=C1/c2ccccc2COc2ccccc21 | 41.1% |
| CC(C)N[C@@H]1CCn2c(=O)[nH]c3cccc(c32)[C@H]1O | 3.01% |
| CCC(C)C(CC)C(N)=O (centres unmarked) | 4.28% |
| CC(C)(C)NC(=O)[C@@H]1CN(Cc2cccnc2)CCN1C[C@@H](O)C[C@@H](Cc1ccccc1)C(=O)N[C@H]1c2ccccc2C[C@H]1O | -2.01% |
| COc1ccc2cc1Oc1ccc(cc1)C[C@H]1c3c(cc4c(c3Oc3cc5c(cc3OC)CCN(C)[C@@H]5C2)OCO4)CCN1C | 57% |
| NC1=N[C@@]2(c3cc(NC(=O)c4ccc(F)cn4)ccc3F)COC[C@H]2CS1 | 3.41% |
| Nc1ccc(F)cc1NC(=O)c1ccc(CNC(=O)/C=C/c2cccnc2)cc1 | 0.35% |
| Cn1c(=O)c2[nH]c(Br)nc2n(C)c1=O | 3.28% |
| COc1ccc(COc2cc3oc(=O)c4cc(C(C)O)ccc4c3cc2OC)cc1 (centres unmarked) | 3.4% |
| C=C(C)[C@@H]1CCC(C)=C[C@H]1c1c(OC)cc(C)cc1OC | -4.61% |
| COC1=C(OC)C(=O)C(C/C=C(\C)CC/C=C(\C)CC/C=C(\C)CC/C=C(\C)CC/C=C(\C)CC/C=C(\C)CC/C=C(\C)CC/C=C(\C)CC/C=C(\C)CCC=C(C)C)=C(C)C1=O | 3.01% |
| COC(=O)Nc1nc2cc(C(=O)c3ccc(F)cc3)ccc2[nH]1 | -4.81% |
| Cc1cc(/C=C2\SC(=O)N(c3ccccc3)C2=O)c(C)n1-c1cccnc1 | -6.01% |

| Structure (SMILES) | result_ITMP |
| --- | --- |
| O=C(O)c1cc(O)c2ccccc2n1 | 3.47% |
| O=C(O)c1ccc(N2C(=O)/C(=C/c3ccc(-c4ccc([N+](=O)[O-])cc4)o3)C=C2c2ccccc2)cc1 | 0.54% |
| OC[C@H]1O[C@@H](Oc2cc3c(O)cc(O)cc3[o+]c2-c2ccc(O)c(O)c2)[C@H](O)[C@@H](O)[C@@H]1O | -2.67% |
| CCOC(=O)c1ccc(N2NC(=O)/C(=C/c3ccc([N+](=O)[O-])o3)C2=O)cc1 | 0.97% |
| O=C(Nc1ccc(C(F)(F)F)cn1)N1CCN(c2ncccc2C(F)(F)F)CC1 | -3.87% |
| CCOC(=O)c1ccc(O)cc1 | 4.07% |
| CC(=O)O[C@H]1Cc2ccccc2N(C(N)=O)c2ccccc21 | -0.57% |
| CCOc1ccc(Cc2cc([C@@H]3O[C@H](CO)[C@@H](O)[C@H](O)[C@H]3O)ccc2Cl)cc1 | -8.44% |
| CN(C)CCN1C(=O)c2cccc3cc(N)cc(c23)C1=O | 19.8% |
| CCC(C)CNCC(=O)N1CCc2sccc2C1COc1cccc(C)c1 (centres unmarked) | 57.8% |
| CCNC(C)CN1CCc2c(c(=O)oc3ccccc23)C1 (centres unmarked) | -0.92% |
| O=C1CC[C@@]2(O)[C@H]3Cc4ccc(O)c5c4C2(CCN3CC2CC2)[C@H]1O5 | -5.93% |
| CCn1nc(C)c2c1C(c1ccccc1)=NCC(=O)N2 | -0.8% |
| COc1cccc2c1C(=O)c1c(O)c3c(c(O)c1C2=O)C[C@@](O)(/C(CO)=N/NC(=O)CCCCCN1C(=O)C=CC1=O)C[C@@H]3O[C@H]1C[C@H](N)[C@H](O)[C@H](C)O1 | 0.08% |
| COc1cc2c(NC3CCN(C)CC3)nc(N3CCCN(C)CC3)nc2cc1OCCOCCN(C)C | 0.39% |
| O=[N+]([O-])c1cc(Cl)ccc1S(=O)(=O)N1CCN(Cc2ccccc2)CC1 | -1.83% |
| CCSc1ccc2c(c1)N(CCCN1CCN(C)CC1)c1ccccc1S2 | 59.1% |
| CCCCc1nn(-c2ccccc2C(F)(F)F)c(=O)n1Cc1ccc(-c2ccccc2S(=O)(=O)NC(=O)c2sccc2C)cc1 | -5.04% |
| Cc1c(O)cccc1C(=O)N[C@@H](CSc1ccccc1)[C@H](O)CN1C[C@H]2CCCC[C@H]2C[C@H]1C(=O)NC(C)(C)C | 5.12% |
| CC(C)CCC[C@@H](C)[C@H]1CC[C@H]2[C@@H]3CC=C4C[C@@H](O)CC[C@]4(C)[C@H]3CC[C@]12C | -3.63% |
| CC(C)NCCCn1c(Sc2cc3c(cc2I)OCO3)nc2c(N)ncnc21 | -5.56% |
| O=C(CN1CCN(Cc2ccc3c(c2)OCO3)CC1)N1c2ccccc2Sc2ccccc21 | 15.4% |

| Structure (SMILES) | result_ITMP |
| --- | --- |
| CN(C)CCC(c1ccccc1)c1ccccn1 (centres unmarked) | -3.41% |
| Cc1cccc(Nc2nc(-c3ccncc3)cs2)c1 | -9.7% |
| NC[C@H]1CC[C@H](C(=O)O)CC1 | -3.43% |
| C=CCc1ccccc1OCC(O)CNC(C)C (centres unmarked) | 12.1% |
| Oc1c(Cl)cc(Cl)cc1Sc1cc(Cl)cc(Cl)c1O | 0.89% |
| O=C(CBr)N1CC([N+](=O)[O-])([N+](=O)[O-])C1 | 0.64% |
| CCCCOc1ccc(CC(=O)NO)cc1 | -3.14% |
| CN(C)c1ccc(/C=C2\C(=O)Nc3ccccc32)cc1 | -0.66% |
| Cc1ccc(O)c([C@H](CCN(C(C)C)C(C)C)c2ccccc2)c1 | 37.1% |
| CCCCCCCCCCCCCCCCO | -6.99% |
| CO/N=C(\C(=O)N[C@@H]1C(=O)N2C(C(=O)O)=C(CSc3nc(C)c(CC(=O)O)s3)CS[C@H]12)c1csc(N)n1 | -5.71% |
| CCN1/C(=C/C(C)=O)Sc2ccc(OC)cc21 | -4.89% |
| COc1ccc2c(NC(=O)Nc3cccc(C(F)(F)F)n3)ccnc2c1 | 4.8% |
| COc1ccc2nc3cc(Cl)ccc3c(Nc3cc(CN4CCCC4)c(O)c(CN4CCCC4)c3)c2n1 | -2.34% |
| CC(=O)c1ccc2c(c1)N(CCCN1CCN(CCO)CC1)c1ccccc1S2 | 74.4% |
| Cc1c(CC(C)(C)C(=O)O)n(Cc2ccc(Cl)cc2)c2ccc(F)cc12 | 3.69% |
| CS(=O)(=O)c1ccc(Cn2c3c(c4cc(F)cc(F)c42)CCCC3CC(=O)O)cc1 (centres unmarked) | -2.27% |
| Cc1c(Cl)cccc1S(=O)(=O)Nc1nc(NCCc2ccccc2)nc2c1CN(Cc1ccccc1)CC2 | -0.11% |
| COc1cc2c(NC3CCN(C4CCCCC4)CC3)nc(N3CCCN(C(C)C)CC3)nc2cc1OCCCN1CCCCC1 | -1.55% |
| NC1C[C@H]1c1ccccc1 (some centres unmarked) | -1.26% |
| C[C@H](CCC(=O)O)[C@H]1CC[C@H]2[C@@H]3CC[C@@H]4C[C@H](O)CC[C@]4(C)[C@H]3CC[C@]12C | -0.58% |
| C[C@]12CC[C@H](O)C[C@H]1CC[C@@H]1[C@@H]2CC[C@]2(C)[C@@H](C3=CC(=O)OC3)CC[C@]12O | -8.72% |

| Structure (SMILES) | result_ITMP |
| --- | --- |
| CC(C)c1c2cc(-c3ccnc(N[C@H]4CC[C@H](NC5CCOCC5)CC4)n3)ccc2nn1C | -12.3% |
| NCCC[C@H](N)CC(=O)N[C@H]1CNC(=O)[C@H]([C@H]2C[C@H](O)N=C(N)N2)NC(=O)/C(=C/NC(N)=O)NC(=O)[C@H](CO)NC(=O)[C@H](CO)NC1=O (β3hOrn-[Dap]SS[ΔAla(Z-3-ureido)][X5]; lactam 1-C) | -3.72% |
| Nc1ccc(C(=O)[O-])c(O)c1 | -0.28% |
| CON(C)C(=O)[C@H](O)[C@H](Cc1ccccc1)NC(=O)c1cc2cc(Cl)ccc2[nH]1 | -0.75% |
| Clc1ccc(COC(Cn2ccnc2)c2ccc(Cl)cc2Cl)cc1 (centres unmarked) | 4.76% |
| CCC(=O)NC[C@@H]1C[C@H]1c1cccc2c1CCO2 | -5.55% |
| C[C@]12CC[C@@H]3c4ccc(O)cc4CC[C@H]3[C@@H]1[C@@H](O)[C@@H](O)[C@@H]2O | -3.61% |
| CO/N=C1\CN(c2nc3c(cc2F)c(=O)c(C(=O)O)cn3C2CC2)CC1CN (centres unmarked) | 7.81% |
| NC(=O)NO | -3.87% |
| Clc1ccccc1C(c1ccccc1)(c1ccccc1)n1ccnc1 | 1.2% |
| CC(C)(C)c1ccc(S(=O)(=O)NCc2ccc(C(=O)Nc3cccnc3)cc2)cc1 | 0.31% |
| C=CC[N@@+]12CC[C@@]34c5ccccc5N5/C=C6/[C@H]7C[C@H]8[C@@]9(CC[N@@+]8(CC=C)C/C7=C/CO)c7ccccc7N(/C=C(/[C@@H](C[C@@H]31)/C(=C\CO)C2)[C@H]54)[C@@H]69 | -6.64% |
| Cc1cc(CC(C)CC(C)(C)C)n(O)c(=O)c1 (centres unmarked) | -2.28% |
| CN1CCC[C@H]1c1cccnc1 | -9.85% |
| CCCC(C(=O)OCCN(CC)CC)(c1ccccc1)c1ccccc1 | 14.9% |
| CCOc1nc2c(N)ncnc2n1CC | -2.12% |
| O=C(NN1C(=O)[C@@H]2[C@@H]3C=C[C@@H]([C@H]4C[C@@H]34)[C@@H]2C1=O)c1ccc(C(F)(F)F)cc1 | -0.89% |
| COc1ccc(-n2nc(CCC(=O)N(C)O)cc2-c2ccc(Cl)cc2)cc1 | 4.73% |
| CCC(O)(CC(N)=O)c1ccccc1 (centres unmarked) | 1.38% |
| NC(Cc1ccc(O)cc1)C(=O)O (racemic) | -3.28% |

Source: paper PMC13083723 (Patterns, 2026)
